From the supplement of paper PMC4967469
Lines with a small IC50 respond at low doses; fits outside the tested doses are given as limits. AUC, from the same fit, is the share of area under the viability curve across the 256-fold dose range; the more sensitive the line, the further below 1. For some of these results: The top dose, if marked as inferred, is not printed in the source and was worked back from the curve model. For some of these results: Drugs with an entry number were screened twice under separate entries, and the two screens often disagree.

Legend:
Assay in all cases: Viability of human cancer cell lines after 72 h of drug (GDSC screen)
SB-505124 = compound: Cc1cccc(-c2[nH]c(C(C)(C)C)nc2-c2ccc3c(c2)OCO3)n1 [SB-505124]; settings: top dose 10 µM; top dose inferred
Procedure: (§1)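 Human cancer cell lines in 384-well plates, medium with 10% serum, drug for 72 h over a 256-fold dose range (nine 2-fold or five 4-fold steps up to the top dose). Adherent lines were fixed and stained with the nucleic acid dye Syto60, suspension lines read with resazurin; signal relative to control wells, capped at 0 and 100%. One two-parameter sigmoid per drug and line, fitted in a mixed model over all curves with the slope shared within a line.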

GSK690693 = compound: CCn1c(-c2nonc2N)nc2c(C#CC(C)(C)O)ncc(OC[C@H]3CCCNC3)c21 [GSK690693]; settings: top dose 10.24 µM; top dose inferred
Procedure: as §1

Tretinoin = compound: CC1=C(/C=C/C(C)=C/C=C/C(C)=C/C(=O)O)C(C)(C)CCC1 [Tretinoin]; settings: top dose 10 µM; top dose inferred
Procedure: as §1

BX-795 = compound: O=C(NCCCNc1nc(Nc2cccc(NC(=O)N3CCCC3)c2)ncc1I)c1cccs1 [BX-795]; settings: top dose 5 µM; top dose inferred
Procedure: as §1

PI-103 = compound: Oc1cccc(-c2nc(N3CCOCC3)c3oc4ncccc4c3n2)c1 [PI-103]; settings: top dose 10.24 µM
Procedure: as §1

UNC0638 = compound: COc1cc2c(NC3CCN(C(C)C)CC3)nc(C3CCCCC3)nc2cc1OCCCN1CCCC1 [UNC0638]
Procedure: as §1

[1] = top dose 20 µM, screen: GDSC drug entry 1236, top dose inferred
[2] = top dose 40 µM, screen: GDSC drug entry 245

Cell Line	AUC (SB-505124)	IC50 (SB-505124) [µM]	AUC (GSK690693)	IC50 (GSK690693) [µM]	AUC (Tretinoin)	IC50 (Tretinoin) [µM]	AUC (BX-795)	IC50 (BX-795) [µM]	AUC (PI-103)	IC50 (PI-103) [nM]	AUC (UNC0638; [1])	IC50 (UNC0638; [1]) [µM]	AUC (UNC0638; [2])	IC50 (UNC0638; [2]) [µM]
IHH-4 (thyroid, semi-adherent)	0.878	6.76	0.99	> 10.2	0.993	> 10	0.749	1.35	0.575	984	0.834	9.57	0.933	> 40
IPC-298 (melanoma, adherent)	0.979	> 10	0.983	> 10.2	0.972	> 10	0.935	> 5	0.581	1060	0.694	4.35	0.543	3.27
JEG-3 (urogenital system, adherent)	0.95	> 10	0.991	> 10.2	0.991	> 10	0.858	3.47	0.991	> 10200	0.901	> 20	0.991	> 40
JHH-1 (liver, adherent)	0.983	> 10	0.947	> 10.2	0.947	> 10	0.917	> 5	0.189	67.7	0.874	> 20	0.701	9.75
JHH-2 (liver, adherent)	0.937	> 10	0.974	> 10.2	0.976	> 10	0.884	> 5	0.351	240	0.984	> 20	0.867	> 40
JHH-4 (liver, adherent)	0.965	> 10	0.972	> 10.2	0.973	> 10	0.819	2.84	0.935	> 10200	0.962	> 20	0.982	> 40
JHH-7 (liver, adherent)	0.865	7.92	0.987	> 10.2	0.988	> 10	0.897	> 5	0.984	> 10200	0.982	> 20	0.861	30.6
JHOS-2 (ovary, adherent)	0.977	> 10	0.959	> 10.2	0.972	> 10	0.742	1.76	0.809	6420	0.969	> 20	0.901	> 40
JHOS-3 (ovary, adherent)	0.982	> 10	0.983	> 10.2	0.95	> 10	0.984	> 5	0.783	5610	0.917	> 20	0.893	> 40
JHU-011 (head and neck, adherent)	0.984	> 10	0.916	> 10.2	0.929	> 10	0.762	1.76	0.324	208	0.795	9.13	0.656	6.73
JHU-022 (head and neck, adherent)	0.978	> 10	0.977	> 10.2	0.877	> 10	0.795	3.06	0.789	5900	0.827	16.9	0.974	> 40
JIMT-1 (breast, adherent)	0.944	> 10	0.957	> 10.2	0.968	> 10	0.835	3.67	0.622	1430	0.896	> 20	0.921	> 40
JURL-MK1 (chronic myeloid leukaemia, suspension)	0.931	> 10	0.975	> 10.2	0.767	3.71	0.837	3.34	0.721	2700	0.808	10.3	0.647	6.36
K2 (melanoma, adherent)	0.972	> 10	0.982	> 10.2	0.982	> 10	0.981	> 5	0.925	> 10200	0.847	> 20	0.915	> 40
KMH-2 (thyroid, adherent)	0.974	> 10	0.949	> 10.2	0.976	> 10	0.76	1.58	0.266	151	0.817	9.68	0.956	> 40
KMRC-1 (kidney, adherent)	0.967	> 10	0.987	> 10.2	0.985	> 10	0.926	> 5	0.967	> 10200	0.983	> 20	0.909	> 40
KMRC-20 (kidney, adherent)	0.988	> 10	0.989	> 10.2	0.989	> 10	0.83	3.22	0.989	> 10200	0.988	> 20	0.987	> 40
KMS-11 (myeloma, suspension)	0.972	> 10	0.96	> 10.2	0.963	> 10	0.988	> 5	0.607	1200	0.749	5.66	0.687	7.65
KON (head and neck, adherent)	0.974	> 10	0.987	> 10.2	0.987	> 10	0.837	3.24	0.952	> 10200	0.753	6.58	0.984	> 40
KP-2 (pancreas, adherent)	0.962	> 10	0.949	> 10.2	0.952	> 10	0.857	4.61	0.927	> 10200	0.985	> 20	0.907	> 40
